According to ChEMBL document CHEMBL4888484, “Replenishing the malaria drug discovery pipeline: Screening and hit evaluation of the MMV Hit Generation Library 1 (HGL1) against asexual blood stage Plasmodium falciparum ,using a nano luciferase reporter read-out” (2022):
The whole screen tested about 150,000 compounds, of which about 540 (0.36%) showed an effect of 50% or more. The list shows a part of the results.

system: Plasmodium falciparum; test: Primary screen in NF54 nanoGlo assay, in single point, at 2uM, 72h; a lower Z score goes with more inhibition; assay type: functional, Erythrocyte; details: timepoint 72 hour

Row | SMILES | % Inhibition [%] | Z score
1 | CNC(=O)Cc1noc(CCc2c[nH]c3ccccc23)n1 | 30 | -3.37
2 | CN(Cc1ccncc1Cl)C[C@]1(O)CCc2ccccc21 | 14 | -1.84
3 | CCOc1cnn(-c2ccc(Cl)cc2)c(=O)c1Nc1ccc(C(=O)NCCc2ccccn2)cc1 | 7 | -0.86
4 | CC(C)(C)n1ncn(Cc2cc(=O)n3ccccc3n2)c1=O | -7 | 1.3
5 | CC(=O)N1CC(NC(=O)NC[C@H](C)C2CC2)C1 | -2 | 0.37
6 | O=C(N[C@H]1CCCNC1=O)c1coc(COc2cccc(F)c2)n1 | -5 | 0.56
7 | Cc1nc2ncnn2c2ccn(CCc3cnc[nH]3)c(=O)c12 | -9 | 1.24
8 | CCOc1ccccc1CN(CCO)C(=O)[C@@H]1CCC[C@H](O)C1 | 2 | -0.29
9 | O=C(c1cccs1)N1CC[C@@H]2COCCN(Cc3cccnc3)[C@@H]2C1 | -4 | 0.56
10 | Fc1ccc(CNc2nc(C3CC3)no2)cc1 | 4 | -0.7
11 | Cc1ccc([C@@H](C)CCN(C)CCn2ccnc2C)o1 | -1 | 0.15
12 | CC(C)NC(=O)[C@H]1CCCN(c2nc3ncn(CC(=O)N4CCc5ccccc5C4)c(=O)c3s2)C1 | -6 | 0.89
13 | C[C@H]1CN(Cc2nc(C3CC3)nn2C)C(C)(C)CN1Cc1nc(C2CC2)nn1C | -24 | 3.17
14 | Cc1cccc(OCCCC(=O)N2CCCCCC2)c1C | -2 | 0.3
15 | CN1CCN(C(=O)NCc2nnc3n2CCC3)[C@@H](CNC(=O)OC(C)(C)C)C1 | -17 | 2.35
16 | COc1ccc(OC)c(C(=O)N(Cc2ccc3c(c2)OCO3)Cc2cc3ccc(Cl)cc3nc2N(C)C)c1 | -13 | 1.53
17 | CC(C)c1nc(CN(C)Cc2ccncc2)no1 | 1 | -0.2
18 | CCCN1CCC(N[C@H]2C[C@@H](C(=O)N3CCc4cc(OC)c(OC)cc4C3)N(C/C=C/c3ccccc3)C2)CC1 | 4 | -0.69
19 | COc1ccc(C(=O)NC2CCN(c3cn[nH]c(=O)c3)CC2)cn1 | 1 | -0.07
20 | Cc1ccc(F)c(C(=O)N2C[C@H]3CC[C@@H](C2)[C@H]3N(C)C)c1Cl | 2 | -0.48
21 | O=C([C@@H]1CCCN1C(=O)Nc1ccccc1)N1CCn2nccc21 | -7 | 1.12
22 | CCOc1ccccc1CNC(=O)[C@@H]1CCCN1c1nnc(N2CCCC2=O)s1 | -3 | 0.44
23 | Cc1ccc(NC(=O)OC(C)(C)C)cc1NCc1cn(C)nn1 | -6 | 0.93
24 | Cn1ccc2c(-c3nc([C@H]4CCOC4)no3)cccc21 | -7 | 1.47
25 | Cc1c(NC(C)C(C)C)cccc1C(=O)NC1CCN(C)C1=O (stereo unspecified) | 3 | -0.58
26 | Cc1cnc(CCNC(=O)CC2CCCC2)n1Cc1ccc(F)cc1 | -14 | 1.57
27 | CC1(O)CN(C(=O)[C@](C)(O)c2ccc(F)c(Br)c2)C1 | 25 | -2.92

Row | SMILES | % Inhibition [%] | Z score
28 | CCCn1ncc(CN2CCc3ccc(OC)cc3[C@@H]2C)c1C | -14 | 1.84
29 | C[C@@H](C(=O)NCC(F)(F)F)N(C)Cc1nccs1 | -10 | 0.83
30 | CCc1cc(=O)[nH]c(-n2ncc(C(=O)NCCc3ccccc3)c2C)n1 | 15 | -1.98
31 | C[C@@H](CC(=O)N1CCN(c2ccccc2F)CC1)Cc1nnc2c(=O)n(-c3cccc(F)c3)ccn12 | -8 | 1.12
32 | COc1cccc2[nH]cc(C(CC(=O)NC3CCS(=O)(=O)C3)c3ccccc3)c12 (stereo unspecified) | -13 | 2.01
33 | C[C@@H](CC(=O)NCCc1nnc2n1CCCC2)c1cccc(C(F)(F)F)c1 | -14 | 1.47
34 | CC(C)(C)OC(=O)N1CC2(CC(=O)NCCN2Cc2cc[nH]n2)C1 | 8 | -0.95
35 | CC(C)c1ncsc1C(=O)NCCCN1CCCO[C@@H](C)C1 | 12 | -1.85
36 | O=C(c1ccccc1)N1C[C@@H]2C[C@@H](O)CN2C2(C1)CN(C(=O)c1ccccc1)C2 | -2 | 0.38
37 | C#CC[C@H](Nc1nc(C)nc2scc(C)c12)C(N)=O | 9 | -1.48
38 | O=C(Nc1cc(S(=O)(=O)N2CCCC2)ccc1O)C1CCCCC1 | 5 | -0.83
39 | COc1ccc(C(=O)N[C@H]2CCCNC2=O)c(O)c1 | -8 | 1.65
40 | CCC1CN(S(=O)(=O)c2cccc3ccoc23)C1 | -18 | 2.76
41 | Cc1nn(C)cc1CNC(=O)Cn1nc(C)n(CCc2ccccc2)c1=O | -3 | 0.52
42 | CC1(C)c2ccccc2N2CC(=O)N[C@@]21/C=C/c1ccc(Cl)cc1 | -10 | 1.14
43 | Cc1nc2c([nH]1)CC[C@H](C(=O)NCc1ccc(C3CC3)cc1F)C2 | -8 | 0.83
44 | CCC1(O)CN(c2cccc(C#N)n2)C1 | -6 | 0.64
45 | O=C(c1nn[nH]c1-c1ccccc1)N1CCC(O)(C2CCC2)CC1 | 1 | -0.21
46 | O=C(NC1CC1)C(c1ccccc1)N1CCC(c2ccccc2)C1 (stereo unspecified) | 0 | -0.05
47 | CN(C)C(=O)N1CCN(CCOc2ccc(F)cc2)[C@@H]2CS(=O)(=O)C[C@@H]21 | 4 | -0.81
48 | CCc1cccc(C)c1NC(=O)[C@@H]1CN(S(=O)(=O)c2ccc(C)cc2)c2ccc(C)cc2O1 | 5 | -0.63
49 | C=CCn1nc([C@@H]2CCCO2)n(C)c1=O | 4 | -0.7
50 | CCc1ccc(NC(=O)C23CCC(C)(C(=O)C2=O)C3(C)C)cc1 (stereo unspecified) | -25 | 4.76
51 | O=C(Nc1ccc2c(c1)OCO2)N1CC[C@H](Oc2ncccn2)C1 | -15 | 2.4
52 | C[C@H]1CN(Cc2ccc3c(c2)CCO3)CCN1CC(F)(F)F | -1 | 0.24
53 | c1nc(N2CCC3(CCCO3)CC2)c2nc[nH]c2n1 | 2 | -0.39
